# In the supplement of paper PMC12632987:
# Whole data set: some 1,800 sequences, median “median log2 fold change of GCK-ALFA target abundance (FLAG IP / Myc IP barcode read proportion)” near 0.14, cut for the lowest 2% near -0.84. The list shows a part of the results.
# T1: TRAF2, Q12933
# T1 chain: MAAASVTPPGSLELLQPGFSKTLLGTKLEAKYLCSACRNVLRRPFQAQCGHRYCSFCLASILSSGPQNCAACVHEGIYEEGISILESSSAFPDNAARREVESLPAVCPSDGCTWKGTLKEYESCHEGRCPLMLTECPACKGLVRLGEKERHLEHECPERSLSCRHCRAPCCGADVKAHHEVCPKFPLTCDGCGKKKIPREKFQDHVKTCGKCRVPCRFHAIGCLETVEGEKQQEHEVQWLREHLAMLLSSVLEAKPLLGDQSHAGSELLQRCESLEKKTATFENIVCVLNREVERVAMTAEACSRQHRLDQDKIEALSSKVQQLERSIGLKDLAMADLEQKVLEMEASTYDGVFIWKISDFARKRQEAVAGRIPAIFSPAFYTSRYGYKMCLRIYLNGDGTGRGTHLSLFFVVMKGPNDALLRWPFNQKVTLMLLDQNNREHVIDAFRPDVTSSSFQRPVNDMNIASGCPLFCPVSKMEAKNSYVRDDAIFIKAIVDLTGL
# B1: traf2_out_17_162_1560 (protein)
# chain: SPIEEKWKELLEELERLREEVERLEEELKNIENMSLEELRDLLVRASEVRRRALELAEEAEELKEEIGEEKAQELIDEAERIAERAQRIANKLYKAILEK
# B2: traf2_out_18_3_1928 (protein)
# chain: SEEERKKVSDELDKVVDEVEEKARKAMEELEEKKPEVKERVEKLRELLESGAGPFGILEELARLAKEAGLEELAKELEAFLEKKRKEAGKLVEEYEKLIK
# B3: traf2_out_20_8_2270 (protein)
# chain: MSMEEKLARAADLILEAKDLARAVIKEVLADERAPEIAARAAAAISVSVGADDTDSDILARIRDRATEAIDALAAETGDPRLAEARDRVSAELAARAAAA
# B4: traf2_out_20_38_2039 (protein)
# chain: SEEEEEERRLEEAVEVANEALDKYEEKIAELKAKGKSVEEIAEWAKEKVKEILGKAGLEEEAKILVEQIDTVKNSPDAERLIARILARAEALVWQKKQNE
# B5: traf2_out_17_178_1741 (protein)
# chain: SKEEILKEISKLADEMIDVSREAAEKLTELAEKEGILTPELRERLDLVARTSNLYAFEEVANELIELSKNKEEIQKLLDETTKKLRELRKKIQEAVEKLK
# B6: traf2_out_13_95_1158 (protein)
# chain: SKELAEKIMEIADKMLDESLKILEELLKIAEKKGKLVEEVKEALHLAETHSINEAIHKLKELSKAHPEFKEEFDEAIKKLEELRREAGREVARLIKEEKE
# B7: traf2_out_11_155_755 (protein)
# chain: SEKLKLLNEMNNKVQDVFDKAREEALKIAKEAAEEHPEHKEEIEKAIKENEHFSAKSFILNMIELFKELGLEEYAKKLEELLEKTQKEANKIVIETEKKL
# B8: traf2_out_20_3_2231 (protein)
# chain: EKLKEEAEKELEKALKQLEKLVKKADPERAKKLEELIKKLEEAKELDPVDALVVASEVRRELLLLAQEAEAEGDEELAKLLKEAAELLQRLMQLLYKIIE
# B9: traf2_out_20_3_2140 (protein)
# chain: EELEKELEKELKKAIELLKEAAKLADPETKAELDKLIKELKASKELSPEDRLVKLSEIRRKVRELAEKAKAKGKEELAKLLEEAADALNRAMNLVMKIIE
# B10: traf2_out_15_17_1309 (protein)
# chain: SAEKELNEKIREATNKVLDEHEKVLEELIEKARKEAEKAGVLEELEKLVEESKDYSVISRVQILALFAKKKGFEELAKELEEAAEKMRKDFSEAVKAAEK
# B11: traf2_out_17_162_1558 (protein)
# chain: SEIEKRWEKLKEELKELEKRVEALEKRLERLAELTPEEIRDLLVEASEVKRRALELAEEAEKLKEKIGEEEAQKLIDEANEIAERAQRIANTLYKALEKK
# B12: traf2_out_9_17_2619 (protein)
# chain: AAAAEARRAAILEVTDEILDELIEEGLITEEEAEEIRKKVREAIEAGKSVDEVRALFLGSIASILLQPDGLSVQEAQKVVGRVYRRWRELLAEREAAAAA
# B13: traf2_out_1_27_999 (protein)
# chain: SDKEIAERIREVLKRASELSPEERLRLAAEAVREFLGIGIGDARTLVVTLVLMEKREEDRERLLEVAEEVMRELGVSEEEIALIRRQALTAWERYQKALA
# B14: traf2_out_15_17_1307 (protein)
# chain: SAEEKKNEAIRKAMNEVLDKNEKRLDELVAEARAEAKKLGKLEELNALLEKTKDYSVRSRVLALAAWAKSWGLEDLAARAEAAAEEIAKEAAEAYAKVEK
# B15: traf2_out_13_95_1061 (protein)
# chain: SRETAKKINELADKAEEEALALLEEARAELADDPEAVAALDEAARALETRGIRAAIHILRQARDAMPEHKAEFDALIARLEAIRRDLGRKVAEIIKEEEE
# B16: traf2_out_18_147_1814 (protein)
# chain: TYEEAIDKLADLRERIRKLMDEIAKLTGKPEEAAKLRDILTSTSVPLEEKEAAVEKAKKEAKALGKEEAVKLLDEALALSKELREAAREANRLMIEEEEE
# B17: traf2_out_15_48_1348 (protein)
# chain: NIEALQKTAREIADLADEKRDEVIARLEELQKQATPEEAKILQEIADAARSGATLRDVRGLLLAAQPQLSPEIAAKVKAIAEEIDEVIREMSKLYNEVEK
# B18: traf2_out_16_62_1465 (protein)
# chain: EEEKEELRKKADEYIDAAQELRDTVITYVSGGDRAAALARLAALAAKYGPEVEALLAALRRAEADPANRAAYLAEADDLAVAVRTRLVKKALELEEQAKK
# B19: traf2_out_11_169_854 (protein)
# chain: EEEKKNREIIDKALELNDEAKEKLKKHALELAKKAGLDVEEVKAIFEKHKGKSLSAIAAALIEWFRSKGEEEVAKEVLKKYEELKEEINKEMTAFIKELK
# Molecular target: T1, TRAF2, Q12933
# Experiment: median log2 fold change of GCK-ALFA target abundance (FLAG IP / Myc IP barcode read proportion) (log2 ratio); each designed protein is fused to an ALFA-tag nanobody in HEK293 cells to bring the named protein to FLAG-tagged glucokinase (GCK); Myc marks an untargeted standard; higher = target protein stabilised (more abundant)
# Details: target protein: 3xFLAG-MCP-GCK-ALFA reporter; HEK293 landing pad (RPLP)
# How it was run: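 Sequencing of reverse-transcribed, amplified circular RNA barcodes from anti-FLAG and anti-Myc immunoprecipitates provided the readout for an ALFA-nanobody-fused binder library recombined into HEK293 landing-pad cells. Those cells were induced with 2 μg mL^−1 doxycycline, transfected with a plasmid expressing a FLAG-tagged target and a Myc-tagged standard, and lysed after 48 h. Target abundance is the per-binder median log2 ratio of FLAG to Myc barcode read proportions. Only barcodes at a proportion of ≥10^−7 in both replicates and binders with ≥3 barcodes per replicate were kept, with a 10^−6 pseudocount added before the two replicates were pooled.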
row,Binder,median log2 fold change
1,B1,-0.341
2,B2,0.202
3,B3,0.271
4,B4,-0.778
5,B5,-0.0674
6,B6,-0.722
7,B7,0.245
8,B8,0.261
9,B9,0.389
10,B10,0.187
11,B11,0.297
12,B12,-0.816
13,B13,-0.201
14,B14,0.335
15,B15,-0.0287
16,B16,0.248
17,B17,0.215
18,B18,0.162
19,B19,-0.0766
